{"source": "PubChem BioAssay AID1347417", "about": "(National Center for Advancing Translational Sciences (NCATS), 2020)", "note": "About 5,300 (4.4%) of roughly 120,000 compounds were called active. The shares of active, inactive and inconclusive entries below differ from those in the screen. The call rests on the fitted dose curve; in most records, active means well fitted inhibition curve with a large enough effect; inconclusive means small, poorly fitted or top-dose-only effect; inactive means no such curve, though single readings can be large or run the other way. A potency beside an inconclusive call is a rough fit, not a confirmed value. Potency means the concentration at half of the fitted maximal effect; tags describe the fitted curve by direction and shape."}
{"assay": "qHTS Primary assay for Inhibitors of Plasmodium falciparum Dd2 growth in vitro; further: nearly all actives have a fitted effect of over 65% in size;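 on activity, negative = inhibition: plate controls were DMSO vehicle for no effect and reference drug for full effect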", "conditions": "P. falciparum Dd2 growth, SYBR Green, 72 h; activity, negative = inhibition: at 28.9 µM (top of the series) unless noted; series mostly up to 28.9 µM", "method_in_brief": "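Readout: SYBR Green fluorescence, 485 nm excitation, 535 nm emission, after ~16 h lysis at 37C. Before that, Dd2-infected red cells (2.5% hematocrit) grew 72 h with compound, 29 uM top final concentration.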"}
{"smiles": "CC1CCN(C(=O)C[C@@H]2c3nc(NC(=O)c4ccc(F)cc4)sc3C[C@@H]3[C@](C)(CO)[C@H](O)CC[C@]32C)CC1", "Potency": "inconclusive: 2 µM [inhibitor, partial curve, poor fit]"}
{"smiles": "O=C(Nc1ccc(F)c(F)c1)C1CCCN1S(=O)(=O)c1cccc2nsnc12", "note": "(stereo not drawn)", "Potency": "active: 11.2 µM"}
{"smiles": "COC(=O)[C@@H]1Cc2c([nH]c3ccccc23)[C@H]2C[C@@H](NCCO)C[C@@H](c3cccc(OC)c3)N21", "Potency": "inconclusive: 2.51 µM [inhibitor, full curve, poor fit]"}
{"smiles": "Cc1ccc(C(=O)N2CCC3(CC2)CC(N2CCN(c4ccccc4)CC2)CCO3)cn1", "note": "(stereo not drawn)", "Potency": "inactive"}
{"smiles": "CCCC(=O)N1CCCC(c2noc(COc3ccccc3)n2)C1", "note": "(stereo not drawn)", "Potency": "inconclusive: 7.94 µM [inhibitor, single point]"}
{"smiles": "CC(C)Oc1ccc(CNC(=O)C2Cn3cccc3C(=O)N2Cc2cccnc2)cc1", "note": "(stereo not drawn)", "Potency": "inconclusive: 17.8 µM [inhibitor, single point]"}
{"smiles": "CCOc1cc(=O)n2c(c1C(=O)Nc1cccc(SC)c1)CCCC2", "Potency": "inactive"}
{"smiles": "CN(CCCN1CCOCC1)Cc1nc(-c2ccc(Cl)cc2)no1", "Potency": "inconclusive: 17.8 µM [inhibitor, single point]"}
{"smiles": "Cc1nc2c(c(NCCc3cnn(-c4ccccc4)c3)n1)CCNCC2", "Potency": "inconclusive: 11.2 µM [inhibitor, partial curve, poor fit]"}
{"smiles": "CCc1ccc(S(=O)(=O)N2C[C@@H]3C(=O)N(C(CC)c4cccs4)C(=O)[C@@H]3C2)cc1", "note": "(stereo partly drawn)", "Potency": "inconclusive: 7.94 µM [inhibitor, partial curve, poor fit]"}
{"smiles": "COc1cc2c(=O)n(CCC(=O)NCC3CCCO3)c(=O)n(CC(=O)Nc3ccc(F)cc3)c2cc1OC", "note": "(stereo not drawn)", "Potency": "inconclusive: 3.55 µM [inhibitor, single point]"}
{"smiles": "Cc1ccc(C(=O)N2CCC(n3cc(-c4nc(-c5ccccc5)no4)nn3)CC2)cc1", "Potency": "inconclusive: 3.98 µM [inhibitor, full curve, poor fit]"}
{"smiles": "CCOc1ccccc1NC(=O)N1CCc2nc(OCCOC)ccc2C1", "Potency": "inactive"}
{"smiles": "O=C(c1cccc(-c2ncc[nH]2)c1)N1CCCC(O)(CN2CCCC2)C1", "note": "(stereo not drawn)", "Potency": "inactive"}
{"smiles": "CN(C)C(=O)N1CCc2nc(-c3ccc(Cl)cc3)nc(-c3ccccc3)c2C1", "Potency": "inconclusive: 5.01 µM [inhibitor, partial curve]"}
{"smiles": "CCn1c(=O)c2sccc2n2c(CCC(=O)Nc3ccc(OC)c(Cl)c3)nnc12", "Potency": "inactive"}
{"smiles": "Cc1nc(CCNC(=O)CCC2CCCC2)no1", "Potency": "inactive"}
{"smiles": "COC(=O)[C@@H]1Cc2c([nH]c3ccccc23)[C@H]2C[C@H](NCc3cccs3)C[C@@H](c3ccc(F)cc3)N21", "Potency": "inconclusive: 2.51 µM [inhibitor, full curve]"}
{"smiles": "CC1(c2ccccc2)N(Cc2ccccc2C#N)C(=O)OC12CCN(Cc1ccccc1F)CC2", "note": "(stereo not drawn)", "Potency": "inconclusive: 2.51 µM [inhibitor, partial curve, poor fit]"}
{"smiles": "Cc1ccc(CNC(=O)C(=O)NCC(c2cccnc2)N2CCN(c3ccccc3F)CC2)cc1", "note": "(stereo not drawn)", "Potency": "inconclusive: 17.8 µM [inhibitor, single point]"}
{"smiles": "Cc1cc2ncc(C(=O)N3CCOCC3)cn2n1", "Potency": "inactive"}
{"smiles": "CC(C)NC(=O)N1CCC[C@@H](O)[C@H](NC(=O)c2ccc(OCCN3CCOCC3)cc2)C1", "Potency": "inactive"}
{"smiles": "COc1cccc([C@H]2CN(C(=O)CCc3scnc3C)C[C@@H]2N)c1", "Potency": "inconclusive: 7.94 µM [inhibitor, single point]"}
{"smiles": "CCOC(=O)c1cc(-c2ccc(F)cc2)n(CCC(=O)NC2CCCCC2)c1C", "Potency": "inconclusive: 0.02 µM [inhibitor, full curve]"}
{"smiles": "O=C(C1CCc2ncc(-c3ccsc3)n2C1)N1CCC(Cc2ccccc2)CC1", "note": "(stereo not drawn)", "Potency": "inactive"}
{"smiles": "COc1ccc(C(=O)N[C@@H]2CCC[C@@H]2C(=O)NCCN2CCCC2)cc1", "Potency": "inconclusive: 17.8 µM [inhibitor, single point]"}
{"smiles": "O=C1CC2(CCN(CC3CC3)CC2)Oc2ccccc21", "Potency": "inactive"}
{"smiles": "CCOC(=O)c1cccc(NC(=O)c2cc3cc4ccc(C)cc4nc3s2)c1", "Potency": "inconclusive: 10 µM [inhibitor, single point]"}
{"smiles": "Cc1ccc(C(=O)N2CCCC(n3cc(-c4nc(-c5ccccc5)no4)nn3)C2)s1", "note": "(stereo not drawn)", "Potency": "inactive"}
{"smiles": "Nc1c(C(=O)Nc2ccc(Br)cc2)sc2nc(-c3ccncc3)ccc12", "activity, negative = inhibition": "inconclusive: -72.3% [inhibitor] [at 5.79 µM]"}
{"smiles": "OCc1ccc(CN2Cc3[nH]cnc3C[C@H]2c2nc(-c3ccc4ccccc4c3)no2)o1", "Potency": "inconclusive: 5.62 µM [inhibitor, partial curve, poor fit]"}
{"smiles": "O=C(C1CCCCCC1)N1CCC(n2cc(C3CCCCC3)nn2)CC1", "Potency": "inactive"}
{"smiles": "O=C(NCCC1CCN(C(=O)Nc2ccccc2F)CC1)c1ccccn1", "Potency": "inactive"}
{"smiles": "COc1ccc(-c2cc(C[C@H]3CNCC[C@H]3CC(=O)N(C)Cc3ccccc3)no2)cc1", "Potency": "active: 10 µM"}
{"smiles": "OCC1(c2nc(C3CCOCC3)nn2-c2cccc3c2CCC3)CC1", "Potency": "inactive"}
{"smiles": "CCOc1ccccc1NC(=O)Cn1c(N(C)Cc2ccccc2)nc(C)cc1=O", "Potency": "inconclusive: 11.2 µM [inhibitor, partial curve, poor fit]"}
{"smiles": "CC1(CNCc2ccccc2)COc2ccc(C(=O)Nc3cccc(Cl)c3)cc2N1", "note": "(stereo not drawn)", "Potency": "inconclusive: 1.26 µM [inhibitor, partial curve, poor fit]"}
{"smiles": "Cc1ccc(C(=O)N2CCC(N3CCNC3=O)CC2)cc1", "Potency": "inactive"}
{"smiles": "CCN(CC)S(=O)(=O)c1ccc(C(=O)NCCSc2c(-c3ccc(OC)cc3)[nH]c3ccccc23)cc1", "Potency": "active: 7.94 µM"}
{"smiles": "COCCC1(NC(=O)C2CCOCC2)CCN(C(=O)c2cccnc2C)CC1", "Potency": "inactive"}
{"smiles": "CCn1nccc1C(=O)N1C[C@@H](Oc2cccnc2)C[C@H]1C(=O)NC1CC1", "Potency": "inactive"}
{"smiles": "Cn1nc(C(=O)N2CCC3(CC2)CC(CO)N(C(=O)c2ccccc2)C3)c2ccccc21", "note": "(stereo not drawn)", "Potency": "inconclusive: 11.2 µM [inhibitor, single point]"}
{"smiles": "O=C(Nc1ccc2oc(-c3cccc(Cl)c3Cl)nc2c1)c1cccc(Br)c1", "Potency": "inconclusive: 17.8 µM [inhibitor, single point]"}
